Results: PMC6949489
Positions count from the first letter of the chain named. Names may count otherwise. These are yes or no findings as the source states them, for the method shown. For some assays here: In cells and extracts the contact can be indirect. Some entries that bind do so weakly or less than the wild type. For some assays here: Sequences can lack the tags named with a protein. Each block holds one binder with its values, some of them ahead of it.

Sequences of proteins named here, by UniProt entry; tags and fusion partners are left off.
UniProt P29466: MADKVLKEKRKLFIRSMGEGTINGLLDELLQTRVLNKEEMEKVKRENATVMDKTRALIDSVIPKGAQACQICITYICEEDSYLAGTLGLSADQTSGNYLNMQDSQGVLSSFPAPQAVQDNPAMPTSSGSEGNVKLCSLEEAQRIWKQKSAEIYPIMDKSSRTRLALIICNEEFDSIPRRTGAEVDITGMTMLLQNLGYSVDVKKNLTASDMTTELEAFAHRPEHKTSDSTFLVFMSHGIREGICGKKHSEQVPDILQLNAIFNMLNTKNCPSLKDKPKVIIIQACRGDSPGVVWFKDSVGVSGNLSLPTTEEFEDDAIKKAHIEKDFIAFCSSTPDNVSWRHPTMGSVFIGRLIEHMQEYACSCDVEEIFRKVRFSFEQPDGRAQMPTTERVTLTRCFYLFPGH

Key:
[1] = target: T1, FLAG-tagged human caspase-4 (C258S) protease-deficient mutant (human) (UniProt P49662); assay: co-IP; as a1, immunoprecipitated complex eluted and analysed under reducing conditions (+ DTT)
T1 sequence: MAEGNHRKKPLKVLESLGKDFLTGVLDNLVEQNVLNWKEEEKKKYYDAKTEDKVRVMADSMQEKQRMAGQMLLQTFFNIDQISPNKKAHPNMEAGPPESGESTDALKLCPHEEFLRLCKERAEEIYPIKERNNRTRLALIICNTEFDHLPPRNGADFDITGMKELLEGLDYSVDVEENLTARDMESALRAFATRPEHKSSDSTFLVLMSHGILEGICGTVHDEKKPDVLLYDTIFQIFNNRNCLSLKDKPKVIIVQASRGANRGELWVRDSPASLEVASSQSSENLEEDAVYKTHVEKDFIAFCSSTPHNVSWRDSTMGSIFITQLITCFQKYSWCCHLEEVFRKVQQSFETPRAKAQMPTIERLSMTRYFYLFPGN

[2] = target: T2, FLAG-tagged human caspase-4 C329S mutant (human) (UniProt P49662); assay: co-IP; 293T cells co-transfected with FLAG-tagged caspase and GPx8 vectors; lysis in 20 mM Tris-Cl pH 8, 1% Triton X-100, 150 mM NaCl; immunoprecipitated with anti-FLAG Ab (also with anti-GPx8 Ab), 4°C 3 h; eluted with SDS buffer, disulfide-linked complexes seen under non-reducing conditions (- DTT); in one panel cells treated with H2O2 (200 μM)
T2 sequence: T1 sequence with S258C, C329S

[3] = target: T3, FLAG-tagged human caspase-4 C118S mutant (human) (UniProt P49662); assay: as above
T3 sequence: T1 sequence with C118S, S258C

[4] = target: T4, FLAG-tagged mouse caspase-11 (mouse) (UniProt P70343); assay: as above
T4 sequence: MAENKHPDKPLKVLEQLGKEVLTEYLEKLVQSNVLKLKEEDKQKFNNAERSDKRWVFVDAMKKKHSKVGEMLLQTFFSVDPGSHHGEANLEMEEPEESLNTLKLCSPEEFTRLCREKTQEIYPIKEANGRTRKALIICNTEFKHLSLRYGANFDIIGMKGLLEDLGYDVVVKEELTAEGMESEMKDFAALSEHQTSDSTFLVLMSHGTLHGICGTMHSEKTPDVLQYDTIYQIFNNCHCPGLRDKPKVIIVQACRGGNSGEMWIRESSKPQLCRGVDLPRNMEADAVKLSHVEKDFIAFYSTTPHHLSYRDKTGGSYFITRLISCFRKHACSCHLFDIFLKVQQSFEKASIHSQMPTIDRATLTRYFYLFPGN

[5] = target: FLAG-tagged human caspase-1 (human) (UniProt P29466); assay: as above
[6] = target: T5, FLAG-tagged human caspase-4, wild type (human) (UniProt P49662); assay: as above
T5 sequence: T1 sequence with S258C

[7] = target: T1, FLAG-tagged human caspase-4 (C258S) protease-deficient mutant (human); assay: as above
[8] = target: T6, endogenous caspase-4 in THP-1 cells (human (endogenous in THP-1)) (UniProt P49662); assay: proximity ligation; in situ PLA in THP-1 cells stably expressing GPx8-Myc, anti-Myc and anti-caspase-4 Abs; untreated or primed with LPS
T6 sequence: T1 sequence with S258C

[9] = target: T1, FLAG-tagged human caspase-4 (C258S) protease-deficient mutant (human); assay: in vitro complex formation assay (disulfide-linked high-molecular-weight complex on blot); E. coli purified GPx8 (pretreated with 1 or 5 mM H2O2, or 50 or 200 mM DTT) with FLAG-tagged caspase-4 (C258S) purified from 293T; both purified

binding [9]: no binding
B3: recombinant GPx8 C79S mutant, N-terminally truncated (N' Δ1-43) (domain or fragment, UniProt Q8TED1 44-209)
chain: INSFYAFEVKDAKGRTVSLEKYKGKVSLVVNVASDSQLTDRNYLGLKELHKEFGPSHFSVLAFPCNQFGESEPRPSKEVESFARKNYGVTFPIFHKIKILGSEGEPAFRFLVDSSKKEPRWNFWKYLVNPEGQVVKFWKPEEPIEVIRPDIAALVRQVIIKKKEDL

binding [9]: no binding
B4: recombinant GPx8 C108S mutant, N-terminally truncated (N' Δ1-43) (domain or fragment, UniProt Q8TED1 44-209)
chain: B3 chain with S36C, C65S

Further lines, the binder ahead of its results:

B1: glutathione peroxidase 8 (GPx8), wild type, expressed in 293T cells (protein, UniProt Q8TED1 1-209)
chain: MEPLAAYPLKCSGPRAKVFAVLLSIVLCTVTLFLLQLKFLKPKINSFYAFEVKDAKGRTVSLEKYKGKVSLVVNVASDCQLTDRNYLGLKELHKEFGPSHFSVLAFPCNQFGESEPRPSKEVESFARKNYGVTFPIFHKIKILGSEGEPAFRFLVDSSKKEPRWNFWKYLVNPEGQVVKFWKPEEPIEVIRPDIAALVRQVIIKKKEDL
binding [1]: no binding (condition: reducing conditions (+ DTT)) | binding [2]: binds | binding [3]: binds | binding [4]: binds | binding [5]: no binding | binding [6]: binds | binding [7]: binds

B2: Myc-tagged GPx8 stably expressed in THP-1 cells (protein, UniProt Q8TED1 1-209)
chain: B1 chain
binding [8]: binds

B5: recombinant GPx8 C2S2 mutant (C79S and C108S), N-terminally truncated (N' Δ1-43) (domain or fragment, UniProt Q8TED1 44-209)
chain: B3 chain with C65S
binding [9]: no binding
